# Data taken from the supplement of paper PMC8728848.
# The list shows a part of the results.
# B1: EEA (Euonymus europaeus) (protein)
# chain: MASTIIATGPTYRVYCRAAPNYNMIVGKGVAFLAPIDETNELQYWYKDDTYSYIKDEAGLPAFSLVNKATGLTLKHSNHHPVPVKLVTYNPNVVDESVLWSQADDRGDGYSAIRSLTNPASHLEAAPLNDWSYNGAIIMGGVWIDAYNQQWKIEPHTG
# Assays:
# Assay in all cases: glycan array binding signal (z-score within array); higher = stronger binding
# Details in all cases: glycan notation: IUPAC condensed, linker removed
# [1] = molecular target: GlcNAc(b1-2)Gal(b1-3)GlcNAc
# In short: (§1)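 From the Consortium for Functional Glycomics database, 3228 arrays were curated, keeping only those whose protein sequence was available. Binding is given as a within-array Z-score averaged across arrays sharing a protein sequence and across linkers. Negative Z-scores can be read as non-binding.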
# [2] = molecular target: GlcNAc(b1-2)Man(a1-3)[GlcNAc(b1-2)Man(a1-6)]Man(b1-4)GlcNAc(b1-4)GlcNAc
# In short: as §1
# [3] = molecular target: GlcNAc(b1-2)Man(a1-3)[GlcNAc(b1-2)Man(a1-6)]Man(b1-4)GlcNAc(b1-4)[Fuc(a1-6)]GlcNAc
# In short: as §1
# [4] = molecular target: GlcNAc(b1-2)Man(a1-3)[GlcNAc(b1-4)][GlcNAc(b1-2)Man(a1-6)]Man(b1-4)GlcNAc(b1-4)GlcNAc
# In short: as §1
# [5] = molecular target: GlcNAc(b1-2)Man(a1-3)[GlcNAc(b1-4)][GlcNAc(b1-2)Man(a1-6)]Man(b1-4)GlcNAc(b1-4)[Fuc(a1-6)]GlcNAc
# In short: as §1
# [6] = molecular target: GlcNAc(b1-2)[GlcNAc(b1-4)]Man(a1-3)[GlcNAc(b1-2)Man(a1-6)]Man(b1-4)GlcNAc(b1-4)GlcNAc
# In short: as §1
# [7] = molecular target: GlcNAc(b1-2)[GlcNAc(b1-4)]Man(a1-3)[GlcNAc(b1-4)][GlcNAc(b1-2)Man(a1-6)]Man(b1-4)GlcNAc(b1-4)GlcNAc
# In short: as §1
# [8] = molecular target: GlcNAc(b1-2)[GlcNAc(b1-4)]Man(a1-3)[GlcNAc(b1-4)][GlcNAc(b1-2)[GlcNAc(b1-6)]Man(a1-6)]Man(b1-4)GlcNAc(b1-4)GlcNAc
# In short: as §1
# [9] = molecular target: GlcNAc(b1-2)[GlcNAc(b1-4)]Man(a1-3)[GlcNAc(b1-4)][GlcNAc(b1-2)[GlcNAc(b1-6)]Man(a1-6)]Man(b1-4)GlcNAc(b1-4)[Fuc(a1-6)]GlcNAc
# In short: as §1
# [10] = molecular target: GlcNAc(b1-2)[GlcNAc(b1-6)]Man(a1-6)[GlcNAc(b1-2)Man(a1-3)]Man(b1-4)GlcNAc(b1-4)GlcNAc
# In short: as §1
# [11] = molecular target: GlcNAc(b1-2)[GlcNAc(b1-6)]Man(a1-6)[GlcNAc(b1-2)Man(a1-3)]Man(b1-4)GlcNAc(b1-4)[Fuc(a1-6)]GlcNAc
# In short: as §1
# [12] = molecular target: GlcNAc(b1-2)[GlcNAc(b1-6)]Man(a1-6)[GlcNAc(b1-4)][GlcNAc(b1-2)Man(a1-3)]Man(b1-4)GlcNAc(b1-4)GlcNAc
# In short: as §1
# GlcNAc(b1-3)Fuc = molecular target: GlcNAc(b1-3)Fuc
# In short: as §1
# GlcNAc(b1-3)Gal = molecular target: GlcNAc(b1-3)Gal
# In short: as §1
# [13] = molecular target: GlcNAc(b1-3)Gal(b1-3)GalNAc
# In short: as §1
# GlcNAc(b1-3)Gal(b1-4)Glc = molecular target: GlcNAc(b1-3)Gal(b1-4)Glc
# In short: as §1
# [14] = molecular target: GlcNAc(b1-3)Gal(b1-4)GlcNAc
# In short: as §1
# [15] = molecular target: GlcNAc(b1-3)Gal(b1-4)GlcNAc(b1-2)Man(a1-3)[GlcNAc(b1-3)Gal(b1-4)GlcNAc(b1-2)Man(a1-6)]Man(b1-4)GlcNAc(b1-4)GlcNAc
# In short: as §1
# [16] = molecular target: GlcNAc(b1-3)Gal(b1-4)GlcNAc(b1-2)Man(a1-3)[GlcNAc(b1-3)Gal(b1-4)GlcNAc(b1-2)Man(a1-6)]Man(b1-4)GlcNAc(b1-4)[Fuc(a1-6)]GlcNAc
# In short: as §1
# [17] = molecular target: GlcNAc(b1-3)Gal(b1-4)GlcNAc(b1-2)[GlcNAc(b1-3)Gal(b1-4)GlcNAc(b1-6)]Man(a1-6)[GlcNAc(b1-3)Gal(b1-4)GlcNAc(b1-2)Man(a1-3)]Man(b1-4)GlcNAc(b1-4)GlcNAc
# In short: as §1
# [18] = molecular target: GlcNAc(b1-3)Gal(b1-4)GlcNAc(b1-3)Gal(b1-4)GlcNAc
# In short: as §1
# [19] = molecular target: GlcNAc(b1-3)Gal(b1-4)GlcNAc(b1-3)Gal(b1-4)GlcNAc(b1-2)Man(a1-3)[GlcNAc(b1-3)Gal(b1-4)GlcNAc(b1-3)Gal(b1-4)GlcNAc(b1-2)Man(a1-6)]Man(b1-4)GlcNAc(b1-4)GlcNAc
# In short: as §1
# [20] = molecular target: GlcNAc(b1-3)Gal(b1-4)GlcNAc(b1-3)Gal(b1-4)GlcNAc(b1-2)Man(a1-3)[GlcNAc(b1-3)Gal(b1-4)GlcNAc(b1-3)Gal(b1-4)GlcNAc(b1-2)Man(a1-6)]Man(b1-4)GlcNAc(b1-4)[Fuc(a1-6)]GlcNAc
# In short: as §1
# [21] = molecular target: GlcNAc(b1-3)Gal(b1-4)GlcNAc(b1-3)Gal(b1-4)GlcNAc(b1-2)[GlcNAc(b1-3)Gal(b1-4)GlcNAc(b1-3)Gal(b1-4)GlcNAc(b1-6)]Man(a1-6)[GlcNAc(b1-3)Gal(b1-4)GlcNAc(b1-3)Gal(b1-4)GlcNAc(b1-2)Man(a1-3)]Man(b1-4)GlcNAc(b1-4)[Fuc(a1-6)]GlcNAc
# In short: as §1
# [22] = molecular target: GlcNAc(b1-3)Gal(b1-4)GlcNAc(b1-3)Gal(b1-4)GlcNAc(b1-3)Gal(b1-4)GlcNAc(b1-2)Man(a1-3)[GlcNAc(b1-3)Gal(b1-4)GlcNAc(b1-3)Gal(b1-4)GlcNAc(b1-3)Gal(b1-4)GlcNAc(b1-2)Man(a1-6)]Man(b1-4)GlcNAc(b1-4)GlcNAc
# In short: as §1
# [23] = molecular target: GlcNAc(b1-3)Gal(b1-4)GlcNAc(b1-3)Gal(b1-4)GlcNAc(b1-3)Gal(b1-4)GlcNAc(b1-2)Man(a1-3)[GlcNAc(b1-3)Gal(b1-4)GlcNAc(b1-3)Gal(b1-4)GlcNAc(b1-3)Gal(b1-4)GlcNAc(b1-2)Man(a1-6)]Man(b1-4)GlcNAc(b1-4)[Fuc(a1-6)]GlcNAc
# In short: as §1
# [24] = molecular target: GlcNAc(b1-3)Gal(b1-4)GlcNAc(b1-3)Gal(b1-4)GlcNAc(b1-3)Gal(b1-4)GlcNAc(b1-2)[GlcNAc(b1-3)Gal(b1-4)GlcNAc(b1-3)Gal(b1-4)GlcNAc(b1-3)Gal(b1-4)GlcNAc(b1-6)]Man(a1-6)[GlcNAc(b1-3)Gal(b1-4)GlcNAc(b1-3)Gal(b1-4)GlcNAc(b1-3)Gal(b1-4)GlcNAc(b1-2)Man(a1-3)]Man(b1-4)GlcNAc(b1-4)[Fuc(a1-6)]GlcNAc
# In short: as §1
# [25] = molecular target: GlcNAc(b1-3)Gal(b1-4)GlcNAc(b1-3)Gal(b1-4)GlcNAc(b1-3)Gal(b1-4)GlcNAc(b1-3)Gal(b1-4)GlcNAc(b1-2)Man(a1-3)[GlcNAc(b1-3)Gal(b1-4)GlcNAc(b1-3)Gal(b1-4)GlcNAc(b1-3)Gal(b1-4)GlcNAc(b1-3)Gal(b1-4)GlcNAc(b1-2)Man(a1-6)]Man(b1-4)GlcNAc(b1-4)GlcNAc
# In short: as §1
# [26] = molecular target: GlcNAc(b1-3)Gal(b1-4)GlcNAc(b1-3)Gal(b1-4)GlcNAc(b1-3)Gal(b1-4)GlcNAc(b1-3)Gal(b1-4)GlcNAc(b1-2)Man(a1-3)[GlcNAc(b1-3)Gal(b1-4)GlcNAc(b1-3)Gal(b1-4)GlcNAc(b1-3)Gal(b1-4)GlcNAc(b1-3)Gal(b1-4)GlcNAc(b1-2)Man(a1-6)]Man(b1-4)GlcNAc(b1-4)[Fuc(a1-6)]GlcNAc
# In short: as §1
# [27] = molecular target: GlcNAc(b1-3)Gal(b1-4)GlcNAc(b1-3)Gal(b1-4)GlcNAc(b1-3)Gal(b1-4)GlcNAc(b1-3)Gal(b1-4)GlcNAc(b1-2)[GlcNAc(b1-3)Gal(b1-4)GlcNAc(b1-3)Gal(b1-4)GlcNAc(b1-3)Gal(b1-4)GlcNAc(b1-3)Gal(b1-4)GlcNAc(b1-6)]Man(a1-6)[GlcNAc(b1-3)Gal(b1-4)GlcNAc(b1-3)Gal(b1-4)GlcNAc(b1-3)Gal(b1-4)GlcNAc(b1-3)Gal(b1-4)GlcNAc(b1-2)Man(a1-3)]Man(b1-4)GlcNAc(b1-4)[Fuc(a1-6)]GlcNAc
# In short: as §1
# [28] = molecular target: GlcNAc(b1-3)Gal(b1-4)GlcNAc(b1-3)Gal(b1-4)GlcNAc(b1-3)GalNAc
# In short: as §1
# [29] = molecular target: GlcNAc(b1-3)Gal(b1-4)GlcNAc(b1-3)GalNAc
# In short: as §1
# [30] = molecular target: GlcNAc(b1-3)Gal(b1-4)GlcNAc(b1-3)[GlcNAc(b1-3)Gal(b1-4)GlcNAc(b1-3)]GalNAc
# In short: as §1
# [31] = molecular target: GlcNAc(b1-3)Gal(b1-4)GlcNAc(b1-6)[Gal(b1-3)]GalNAc
# In short: as §1
# [32] = molecular target: GlcNAc(b1-3)Gal(b1-4)GlcNAc(b1-6)[GlcNAc(b1-3)Gal(b1-3)]GalNAc
# In short: as §1
# [33] = molecular target: GlcNAc(b1-3)Gal(b1-4)GlcNAc(b1-6)[GlcNAc(b1-3)]Gal(b1-4)GlcNAc
# In short: as §1
# GlcNAc(b1-3)GalNAc = molecular target: GlcNAc(b1-3)GalNAc
# In short: as §1
# GlcNAc(b1-3)Man = molecular target: GlcNAc(b1-3)Man
# In short: as §1
# [34] = molecular target: GlcNAc(b1-3)[GlcNAc(b1-4)][GlcNAc(b1-6)]GlcNAc
# In short: as §1
# [35] = molecular target: GlcNAc(b1-3)[GlcNAc(b1-6)]Gal(b1-4)GlcNAc
# In short: as §1
# [36] = molecular target: GlcNAc(b1-3)[GlcNAc(b1-6)]GalNAc
# In short: as §1
# [37] = molecular target: GlcNAc(b1-3)[GlcNAc(b1-6)]GlcNAc
# In short: as §1
# [38] = molecular target: GlcNAc(b1-3)[GlcNAc(b1-6)]GlcNAc(b1-4)GlcNAc
# In short: as §1
# [39] = molecular target: GlcNAc(b1-4)Gal(b1-4)GlcNAc
# In short: as §1
# GlcNAc(b1-4)GlcNAc = molecular target: GlcNAc(b1-4)GlcNAc
# In short: as §1
binder,measurement,setting,value
B1,glycan array binding signal (z-score),[1],-0.376
same,glycan array binding signal (z-score),[2],-0.152
same,glycan array binding signal (z-score),[3],-0.138
same,glycan array binding signal (z-score),[4],-0.242
same,glycan array binding signal (z-score),[5],-0.234
same,glycan array binding signal (z-score),[6],-0.153
same,glycan array binding signal (z-score),[7],-0.19
same,glycan array binding signal (z-score),[8],-0.24
same,glycan array binding signal (z-score),[9],-0.169
same,glycan array binding signal (z-score),[10],-0.146
same,glycan array binding signal (z-score),[11],-0.204
same,glycan array binding signal (z-score),[12],-0.205
same,glycan array binding signal (z-score),GlcNAc(b1-3)Fuc,-0.16
same,glycan array binding signal (z-score),GlcNAc(b1-3)Gal,-0.213
same,glycan array binding signal (z-score),[13],-0.1
same,glycan array binding signal (z-score),GlcNAc(b1-3)Gal(b1-4)Glc,-0.228
same,glycan array binding signal (z-score),[14],-0.16
same,glycan array binding signal (z-score),[15],-0.158
same,glycan array binding signal (z-score),[16],-0.195
same,glycan array binding signal (z-score),[17],0.038
same,glycan array binding signal (z-score),[18],-0.226
same,glycan array binding signal (z-score),[19],0.225
same,glycan array binding signal (z-score),[20],-0.109
same,glycan array binding signal (z-score),[21],0.07
same,glycan array binding signal (z-score),[22],-0.034
same,glycan array binding signal (z-score),[23],-0.059
same,glycan array binding signal (z-score),[24],0.131
same,glycan array binding signal (z-score),[25],-0.156
same,glycan array binding signal (z-score),[26],-0.221
same,glycan array binding signal (z-score),[27],-0.012
same,glycan array binding signal (z-score),[28],-0.135
same,glycan array binding signal (z-score),[29],-0.156
same,glycan array binding signal (z-score),[30],-0.132
same,glycan array binding signal (z-score),[31],-0.17
same,glycan array binding signal (z-score),[32],-0.169
same,glycan array binding signal (z-score),[33],-0.133
same,glycan array binding signal (z-score),GlcNAc(b1-3)GalNAc,-0.237
same,glycan array binding signal (z-score),GlcNAc(b1-3)Man,-0.219
same,glycan array binding signal (z-score),[34],-0.125
same,glycan array binding signal (z-score),[35],-0.147
same,glycan array binding signal (z-score),[36],-0.152
same,glycan array binding signal (z-score),[37],-0.173
same,glycan array binding signal (z-score),[38],-0.286
same,glycan array binding signal (z-score),[39],-0.237
same,glycan array binding signal (z-score),GlcNAc(b1-4)GlcNAc,-0.172
